Results: the supplement of paper PMC3334620
Whole data set: some 33,000 sequences, median “E-score (-0.5 to 0.5)” near -0.011, cut for the highest 2% near 0.28. The list shows a part of the results.

Target: T1, Gcr1 (UniProt P07261)
T1 sequence: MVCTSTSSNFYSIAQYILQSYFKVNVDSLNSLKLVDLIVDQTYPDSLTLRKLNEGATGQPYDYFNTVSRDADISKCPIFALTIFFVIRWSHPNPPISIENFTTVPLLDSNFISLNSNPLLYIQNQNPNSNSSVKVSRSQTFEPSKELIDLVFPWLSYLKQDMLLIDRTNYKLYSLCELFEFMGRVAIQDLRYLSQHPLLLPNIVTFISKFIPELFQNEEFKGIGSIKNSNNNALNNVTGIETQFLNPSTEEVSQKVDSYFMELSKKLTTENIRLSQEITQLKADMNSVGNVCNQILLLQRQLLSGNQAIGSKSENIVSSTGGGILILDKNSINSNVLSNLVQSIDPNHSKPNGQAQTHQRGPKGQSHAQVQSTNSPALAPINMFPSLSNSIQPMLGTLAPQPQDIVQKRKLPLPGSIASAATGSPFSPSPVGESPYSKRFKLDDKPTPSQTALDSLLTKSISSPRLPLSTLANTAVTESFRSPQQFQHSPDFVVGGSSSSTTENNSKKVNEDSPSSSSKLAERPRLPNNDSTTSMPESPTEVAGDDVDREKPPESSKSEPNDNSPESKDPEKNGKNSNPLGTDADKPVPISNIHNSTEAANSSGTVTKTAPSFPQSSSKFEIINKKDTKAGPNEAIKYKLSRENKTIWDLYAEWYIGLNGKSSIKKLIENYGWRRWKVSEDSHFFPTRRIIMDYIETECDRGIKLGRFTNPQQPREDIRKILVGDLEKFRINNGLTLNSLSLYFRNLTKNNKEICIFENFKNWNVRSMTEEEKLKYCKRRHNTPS
Assay: PBM E-score (8-mer binding enrichment) (E-score (-0.5 to 0.5)); higher = stronger / more preferred TF binding; most listed sequences are background and not binding sites
Settings: protein concentration: 100 nM; construct: GST-full length
Outline: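 For each ungapped eight-base word taken together with its reverse complement, the Universal PBM Analysis Suite assigned an E-score. Binding data came from GST-tagged yeast transcription factors, applied at about 100-200 nM, on universal all-10-mer Agilent arrays made double-stranded by primer extension. Fluorescent anti-GST marked bound protein, and scans were normalised with masliner.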

Sequence | PBM E-score
CGCCGATA | -0.252
ACGCCTCT | 0.114
CCGCAGGA | -0.0064
CGAGCCTC | -0.0914
CCGTAAAC | -0.0216
CCATGGAC | 0.0953
GCCAGCCC | -0.0556
TCACCTGA | -0.116
ATCGATCA | -0.203
ACAGAAGT | 0.123
GATCATCA | -0.211
AGGCGACC | 0.0593
CGAGGGTC | -0.166
GAGGCGAA | -0.0281
CTTGACAA | -0.103
GAACATTC | 0.0406
GCTGTACA | -0.0854
AATTTGCG | 0.0847
ATGTGGGA | -0.0517
ACTGGAAA | 0.0867
GACAAGCA | -0.0663
AAGCTCGT | -0.145
ATTCTTTC | 0.0196
GAGCGAGA | -0.00255
CACTGGAA | 0.318

Sequence | PBM E-score
ACATTAGG | 0.131
GGCCTGAC | -0.138
ATTTGCCG | -0.0823
AACATACG | 0.027
CTCTCCTA | -0.0866
AGTGCTTG | 0.00221
CGAATGTC | 0.0561
ACCAATAG | -0.0506
CCTCTGCC | -0.306
AATGCCCG | -0.207
AAGCACCA | 0.0436
TAGCAACA | -0.0292
CCGCTAGC | -0.0553
ACCTTACC | 0.05
AGCTGTAT | -0.158
GGACGCGA | 0.0936
GAGGCTAC | 0.102
AATAGGCA | 0.19
ATGAACAA | 0.0275
AACAGCGA | 0.0429
GAATAGCC | -0.102
GAAGGACC | -0.0426
AGTGGTTG | 0.235
ACGGCGTG | 0.111
CGAGTTTC | -0.0399

Sequence | PBM E-score
TCTTAAAA | 0.0331
GTTATGGA | 0.0104
CTTAGTAA | 0.00321
CTTACGTC | -0.22
TCATTAAA | 0.246
AAAGGTCG | -0.0877
ACGAAGGA | -0.0775
ACTGTAGG | -0.02
CACTCCGA | -0.0102
AGCACGCT | -0.123
ACTCTACA | 0.0674
TCCATGCA | -0.0599
AAACGGTA | -0.058
ACCCACGT | -0.0778
CTCTCTGC | -0.141
ATCGTCAA | -0.0894
CACCTTAG | 0.141
AGCATTAG | -0.155
ATCGTTGA | -0.0165
CGGGATTA | -0.0698
ATAAATGG | 0.0655
ATGACGAG | -0.215
ACTGAGAA | 0.00902
GCAACCCC | 0.0451
ACGGACTC | -0.0534

Sequence | PBM E-score
GCTCTTTA | -0.0543
ACATTTAT | -0.12
GAAATGTC | -0.172
AAGATTGA | -0.134
AACACGCC | -0.137
GGATAAGA | 0.169
AGTAAATC | 0.066
CGTATCCA | 0.00273
GAATAGTA | -0.0935
GAGCGACC | 0.0254
CAAACCCA | 0.0871
CTAAGAAG | 0.251
CGGACAAG | -0.121
CACTCCCG | -0.134
CCACCGAA | -0.0589
ATTCATGA | 0.123
CAAGGGCA | -0.136
ACGCCATC | -0.0108
ATGAGACC | -0.182
ATCAAAGG | -0.166
AATTATCC | -0.0869
ACATGGTA | -0.124
CTCTTGTC | -0.051
AGATTTAG | 0.188
TACATTAA | 0.127

Sequence | PBM E-score
GCGGGCCA | -0.142
GTGTAATA | 0.186
ATGGCCAA | -0.23
CTCGTTGC | -0.122
ATGGTTTA | -0.176
CCATTATA | 0.133
AGCGAGGG | -0.032
CGAAAGAA | 0.158
AGTGCGAC | -0.209
ACCCGAGG | 0.0242
TGTGTTAA | 0.0586
TACTGGGA | 0.166
ACGATGGC | -0.219
AACAGAAA | 0.0566
CGTCTTGA | 0.0798
ATACATGC | -0.00642
CGCGTTCA | -0.011
CATGCCGG | -0.0651
GCAGGAAC | -0.0184
CTATGACA | -0.123
GTACACAA | 0.0895
GTACAACA | 0.0044
CAAACCAG | -0.0395
CCCGAACC | -0.11
CCTAAGCC | -0.235

Sequence | PBM E-score
CACACCGG | 0.0972
CACACGCA | 0.057
CAGTCACG | -0.0771
CCTTATAC | 0.0665
CCTGGTAG | 0.0486
GGTAACAC | -0.147
CAGTGGTC | -0.111
CCGGTGCG | 0.0158
GGTCCTGA | 0.116
CCACTCTA | 0.178
GACACTCA | -0.251
AATTTTCA | 0.119
ACCGTCCG | -0.165
CTGCTGGC | -0.155
AAATATTT | 0.0459
CGCAGCTA | 0.34
ATATACCG | -0.00748
AGTACACC | -0.193
TAATGCGA | -0.0341
CTTTCACC | -0.202
ACAGCTTG | -0.199
ACTCCACT | 0.0961
CTGCCAGA | 0.234
AAGCCGGA | 0.186
AACGTCGC | -0.00983

Sequence | PBM E-score
CTTGAACA | 0.114
CAAGAGCC | 0.115
ATGTAATA | 0.139
GCGGACCA | 0.0166
TTGAGAAA | 0.207
CTGTAAGC | -0.0646
CAAGATCG | -0.0445
CTGTGGAA | 0.276
GGTGCATA | 0.1
CACTGGGC | -0.0523
GCTAATCC | -0.0671
CTTCACCC | 0.0369
AAATTCTT | 0.0384
TACAAGGA | 0.0703
GGCTCCTA | 0.245
AATCCGGT | 0.166
CAGGGGAC | -0.0253
CGATGGCG | -0.21
TATCTGCA | -0.00846
ACCTCCCG | -0.179
GCCGTTCC | -0.00804
TGCGCTAA | 0.141
